Laboratory results reported in the supplement of paper PMC3334620.
Over roughly 33,000 sequences, “E-score (-0.5 to 0.5)” has its median near -0.012; the highest 2% begin near 0.29. The list shows a part of the results.

biological target: T1, Ybr033w (UniProt P38073); assay: PBM E-score (8-mer binding enrichment) (E-score (-0.5 to 0.5)); higher = stronger / more preferred TF binding; most listed sequences are background and not binding sites; details: protein concentration: 200 nM; construct: GST-full length
T1 sequence: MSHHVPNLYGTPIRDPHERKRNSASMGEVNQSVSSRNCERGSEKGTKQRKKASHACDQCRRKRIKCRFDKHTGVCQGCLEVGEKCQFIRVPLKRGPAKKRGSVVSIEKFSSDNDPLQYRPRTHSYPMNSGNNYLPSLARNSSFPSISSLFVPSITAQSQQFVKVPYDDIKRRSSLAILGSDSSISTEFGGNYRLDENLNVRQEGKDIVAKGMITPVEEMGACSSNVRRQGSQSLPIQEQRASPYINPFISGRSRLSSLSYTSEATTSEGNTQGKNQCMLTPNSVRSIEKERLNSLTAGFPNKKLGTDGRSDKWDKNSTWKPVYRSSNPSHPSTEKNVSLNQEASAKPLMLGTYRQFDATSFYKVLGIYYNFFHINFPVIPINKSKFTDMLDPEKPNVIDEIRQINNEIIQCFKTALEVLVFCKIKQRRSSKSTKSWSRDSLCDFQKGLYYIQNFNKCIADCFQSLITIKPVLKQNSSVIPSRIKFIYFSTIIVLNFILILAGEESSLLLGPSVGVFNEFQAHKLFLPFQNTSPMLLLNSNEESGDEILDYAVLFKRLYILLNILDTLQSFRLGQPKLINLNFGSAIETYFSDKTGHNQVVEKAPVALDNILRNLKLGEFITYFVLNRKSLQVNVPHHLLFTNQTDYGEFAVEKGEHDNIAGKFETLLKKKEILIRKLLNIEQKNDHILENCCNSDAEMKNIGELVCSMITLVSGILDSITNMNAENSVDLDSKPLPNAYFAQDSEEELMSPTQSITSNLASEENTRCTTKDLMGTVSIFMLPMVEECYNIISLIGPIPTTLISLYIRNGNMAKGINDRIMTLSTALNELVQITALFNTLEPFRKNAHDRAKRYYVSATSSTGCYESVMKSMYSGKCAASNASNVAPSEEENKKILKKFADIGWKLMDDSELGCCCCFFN
Method in brief: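 GST-tagged yeast TFs (full-length or DNA-binding domain) were made by PURExpress in vitro transcription/translation and applied at about 100-200 nM to universal all-10-mer Agilent arrays. The arrays were made double-stranded by primer extension, on fresh or once-stripped slides. Bound protein was detected with fluorescent anti-GST, and scans were normalised with masliner. Each ungapped eight-base word, pooled with its reverse complement, received an E-score (modified Wilcoxon-Mann-Whitney statistic) from the Universal PBM Analysis Suite.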

Compared with AAATCCCA, TCCGCCCA is lower in “PBM E-score” value: 0.0991 for the first, -0.00602 for the second.

Going from GGTGGCTA to AAGATTAT, the “PBM E-score” value rises from -0.0428 to 0.247.

Going from GATTATTA to AATTTAGA, the “PBM E-score” value falls from 0.298 to 0.211.

Compared with TAATACAA, CCGGGTCC is lower in “PBM E-score” value: 0.202 for the first, -0.234 for the second.

Compared with TTCTACAA, GTTGCAGA is lower in “PBM E-score” value: 0.207 for the first, -0.0954 for the second.

Going from TCCCTTAA to CATAGGCA, the “PBM E-score” value falls from 0.0737 to -0.194.

Compared with CGCCTAGA, GGTCCTAA is lower in “PBM E-score” value: -0.0891 for the first, -0.148 for the second.

Compared with TCCCCGAA, GGGAAGTA is lower in “PBM E-score” value: 0.0432 for the first, -0.0247 for the second.

Going from CAATCGCA to ACGACTCA, the “PBM E-score” value falls from 0.0591 to -0.0223.

Compared with CGCCCACG, CCGCTGTA is higher in “PBM E-score” value: -0.163 for the first, -0.0199 for the second.

Compared with GACGCATC, TTAATTAA is higher in “PBM E-score” value: -0.0923 for the first, 0.241 for the second.

Going from ATGGGCCG to GTCACTTA, the “PBM E-score” value rises from -0.165 to 0.236.

Going from GGATCTGA to ACCCTGAC, the “PBM E-score” value falls from -0.0531 to -0.23.

Going from ATTCGTCA to AGTGTGCG, the “PBM E-score” value falls from 0.0697 to -0.0768.

Going from CCTTAGGC to AGTATCTA, the “PBM E-score” value rises from -0.258 to 0.213.

Going from ACGATTCC to ATGGTGTC, the “PBM E-score” value falls from 0.0523 to -0.03.

First: GTTATTGA
Second: ATGGTATC
The “PBM E-score” value of the first is lower: 0.0969 for the first, 0.131 for the second.

Compared with CAATGGGA, CCCCTATC is lower in “PBM E-score” value: -0.041 for the first, -0.337 for the second.

Going from AGTCCGTA to GAAGAGCC, the “PBM E-score” value rises from -0.251 to -0.13.

First: ATATAGTG
Second: ACTCGCAC
The “PBM E-score” value of the first is higher: 0.181 for the first, -0.248 for the second.

Going from ACCGCACG to GTTCACTA, the “PBM E-score” value rises from -0.169 to 0.0992.

Going from CAATTGCG to CCCGTCGG, the “PBM E-score” value falls from -0.0935 to -0.196.

Going from GCCCCAAC to AGGTCATC, the “PBM E-score” value rises from -0.0113 to 0.0144.

Going from ATCAACTG to ACAGCCTA, the “PBM E-score” value falls from 0.141 to 0.118.

Going from GCCGTTAA to AAGAGGTC, the “PBM E-score” value falls from 0.0115 to -0.0651.

First: CTTTGCAC
Second: ACATAGCG
The “PBM E-score” value of the first is higher: 0.0862 for the first, 0.0674 for the second.

First: GCATCCTA
Second: CAGGAGAC
The “PBM E-score” value of the first is higher: 0.0175 for the first, -0.0953 for the second.

First: ATAAGCCG
Second: GCGTTCAA
The “PBM E-score” value of the first is lower: -0.0781 for the first, 0.117 for the second.

Compared with CTTAAATC, TCAAGTAA is higher in “PBM E-score” value: 0.105 for the first, 0.199 for the second.

First: CTCGTTCA
Second: TGGCAAAA
The “PBM E-score” value of the first is lower: -0.102 for the first, 0.183 for the second.

Going from CCTAAAAA to ATCCCAGG, the “PBM E-score” value falls from 0.196 to -0.28.

Going from CCAGTTAC to ACGAAGTG, the “PBM E-score” value rises from -0.303 to -0.00975.

Compared with ACCAGACT, ACAATTAT is higher in “PBM E-score” value: 0.0132 for the first, 0.328 for the second.

With ATTTGTGG the “PBM E-score” value was 0.0535.
